± gives the standard deviation of the averaged measurements. Whole data set: some 1,900 compounds, median “CD40L-induced NF-kB luciferase activity, plate-corrected, relative to DMSO (0) and IKK inhibitor VII (-100) controls” near 0.032, cut for the lowest 2% near -26. Some of the results follow.
The compounds below were run on BL2-NFkB-Luc (assay: CD40L-induced NF-kB luciferase activity, plate-corrected, relative to DMSO (0) and IKK inhibitor VII (-100) controls (% normalized activity); higher = more NF-kB reporter activity (less inhibition)). Conditions: 9.4 µM; stimulus: tCD40L 64 ng/ml; 4.5 h.
Method: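 BL2 B cells with a stable NF-kB response-element luciferase reporter (BL2-NFkB-Luc), 384-well. Cells were pre-incubated with compound at 9.4 uM for 1 h at 37 C, then stimulated with 64 ng/ml trimerized CD40L for 4.5 h; luciferase was read with Steady-Glo. Signal was normalised per plate in Genedata (median DMSO neutral control = 0, median IKK inhibitor VII at 50 uM = -100) with Assay Median plate-pattern correction; duplicate plates.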

SMILES	CD40L-induced NF-kB luciferase activity
CCOc1ccc(CCn2c(-c3ccco3)nc3ccccc3c2=O)cc1OCC	-12.2 ± 2.2
CC(C)CN1CCN(Cc2ccc3ncccc3c2)CC1CCO (stereo not drawn)	2.01 ± 3.1
O=C(NCCN1CCN(c2ccccc2)CC1)c1cccc(Br)c1	1.12 ± 0.63
Cc1cccc(NC(=O)c2cc3ccccc3o2)c1	59.9 ± 28
O=C(NN=Cc1ccc([N+](=O)[O-])o1)c1ccc(O)cc1	-1.71 ± 0.97
CCOC(=O)c1cnc2ccc(C(=O)OC)cc2c1Nc1ccc2c(c1)OCCO2	-1.39 ± 2.7
O=c1cc(Cn2ccnc2)c2cc3c(cc2o1)CCC3	3.94 ± 2.4
CC(=O)Nc1ccccc1O	6.2 ± 2.2
COc1ccc(C(=O)NCc2cccnc2)cc1	-2.51 ± 0.59
S=C(c1ccc2c(c1)OCO2)N1CCCCC1	-1.53 ± 2.3
COc1cc2c3c(c1)C(C)CC(C)(C)N3C(=O)C2=O (stereo not drawn)	0.117 ± 1.4
CC(=O)Oc1ccc2occ(C=Nc3cc(=O)[nH]c(=S)[nH]3)c(=O)c2c1	1.96 ± 2.2
COc1ccc(O)c(N)c1	-3.14 ± 0.64
C=CCn1c(N2CCCCCC2)nc2c1c(=O)n(C)c(=O)n2C	-8.807 ± 0.026
S=C(NCc1ccccc1)NCc1cccc(CNC(=S)NCc2ccccc2)c1	2.76 ± 7.2
COc1ccc(CN(C)CCc2ccccn2)cc1OC	-3.21 ± 1.3
CC(N=C(NC#N)Nc1ccncc1)C(C)(C)C (stereo not drawn)	-1.86 ± 0.31
CC(=O)OCC(=O)[C@@]1(OC(C)=O)[C@@H](C)C[C@H]2[C@@H]3C[C@H](F)C4=CC(=O)C=C[C@]4(C)[C@@]3(F)[C@@H](O)C[C@@]21C	-17.3 ± 0.28
O=C(NO)c1ccccc1O	-8 ± 5.2
C#C[C@]1(O)CC[C@H]2[C@@H]3CCC4=CC(=O)CC[C@@H]4[C@H]3CC[C@@]21CC	-3.72 ± 4.1

SMILES	CD40L-induced NF-kB luciferase activity
COc1cc2nc(-c3ccccc3)nc(N3CCCC3)c2cc1OC	14.1 ± 1.1
CC(=O)OCC(=O)[C@H]1CC[C@H]2[C@@H]3CCC4=CC(=O)CC[C@]4(C)[C@H]3CC[C@]12C	-9.02 ± 3.7
CCOC(=O)Cn1c(C)cc(=O)c2ccccc21	0.248 ± 3.4
COc1ccc(C(=O)/C=C/c2cc(C(=O)O)cc3c2OCOC3)c(O)c1	-8.03 ± 6.9
CNc1nc(N(C)C)nc(N(C)C)n1	-0.683 ± 1.1
O=C(O)CP(=O)(O)O	10.9 ± 0.59
CCc1cc2c(=O)c(-c3ccc(F)cc3)c(C)oc2cc1OCC(=O)O	1.94 ± 0.96
O=C(c1ccc(O)cc1)c1ccc(O)cc1O	4.98 ± 0.29
COc1ccccc1C(=O)c1cc2ccc(O)cc2oc1=O	3.01 ± 2
COc1cc2c(cc1OC)C(Cc1ccc(O)cc1)N(C)CC2 (stereo not drawn)	-0.549 ± 0.081
COc1ccc2[nH]c(=O)c(CNC3CCCCC3)cc2c1	2.49 ± 4.4
COc1ccccc1OCC(O)COC(N)=O (stereo not drawn)	-3.41 ± 4.7
CC(=O)CCc1c(C)c2cccc(C)c2[nH]c1=O	1.37 ± 8.8
Cc1c2c(nc3c(C)cccc13)OC(C)C2 (stereo not drawn)	1.45 ± 0.016
COC(=O)c1ccccc1NC(=O)c1ccc(COc2ccc3c(c2)CCC3)cc1	13.3 ± 8.1
CN1CCCC(OC(=O)c2ccc3c(c2)OCCO3)C1 (stereo not drawn)	0.542 ± 3.1
Fc1ccc(-c2cc(-c3ccccc3)nc(-n3cccn3)n2)cc1	-4.51 ± 1.4
CC(C)Cc1nc(NCCN2CCOCC2)c(C#N)c2c1COC(C)(C)C2	-2.89 ± 0.75
c1ccc(CNc2ncnc3nc[nH]c23)cc1	3.9 ± 1.4
Cc1ccc2c(c1)C(O)(C1COC(C)(C)CC1=O)C(=O)N2C (stereo not drawn)	-0.228 ± 1.6

SMILES	CD40L-induced NF-kB luciferase activity
O=C1NCC2=C1C(c1ccccc1)Nc1ccccc1N2 (stereo not drawn)	17.82 ± 0.028
Cc1ccccc1-c1nn(-c2ccc(F)cc2F)cc1CNCCN(C)C	-0.375 ± 1.3
COc1ccc(C2C3=C(OC(C)=O)c4ccccc4C3=Nc3c2c(=O)n(C)c(=O)n3C)cc1 (stereo not drawn)	6.21 ± 0.2
CC(=O)NC(Cc1c[nH]c2ccccc12)C(=O)NN=Cc1ccccc1 (stereo not drawn)	3.28 ± 0.72
COC1CCN(Cc2cn(Cc3ccccc3)nc2-c2cc3ccccc3o2)CC1	1.03 ± 0.17
Cc1cccc(-c2ncc(CN3CCN(CC(C)C)C(CCO)C3)cn2)c1 (stereo not drawn)	-2.36 ± 4.5
COc1ccc(Cc2noc(CN(C)CC3(N4CCOCC4)CCCCC3)n2)cc1OC	-2.82 ± 6.4
COCCCNc1nc2c([nH]1)c(=O)[nH]c(=O)n2C	3.3 ± 3
NCc1ccccc1COc1ccccc1	-4.87 ± 3.4
O=C(O)/C=C/c1cnc[nH]1	-1.07 ± 0.34
CCN(CC)C(=O)c1sc(NC(=O)c2c(OC)cccc2OC)c(C#N)c1C	4.13 ± 5.4
CC1COc2c(N3CCN(C)CC3)c(F)cc3c(=O)c(C(=O)O)cn1c23 (stereo not drawn)	-2.61 ± 3.1
COc1ccc2[nH]cc(CCNC(=O)C3CCCNC3=O)c2c1 (stereo not drawn)	-11.5 ± 4.2
CCOC(=O)c1ccc(N2C(=O)C(CC(N)=O)N(CCc3ccc(OC)c(OC)c3)C2=S)cc1 (stereo not drawn)	2.87 ± 1.8
C[C@H]1O[C@H]1P(=O)(O)O	3.4 ± 3.8
CC(C)(C)C(=O)NC(=S)NNC(=O)c1ccncc1	-14 ± 18
OCCN(CCO)c1ccc2ccccc2c1	2.64 ± 4.2
Cn1cc(C2N3CC4(C)CN2CC(C)(C3)C4=O)c2ccccc21 (stereo not drawn)	-1.29 ± 1.8
